According to the supplement of paper PMC12217912:
Some of the results follow. The full chains were built here from the parent and the listed change. Inactive controls read about 0.05.

B1: TEV protease; numbered along this chain (parent)
chain: MGESLFKGPRDYNPISSSICHLTNESDGHTTSLYGIGFGPFIITNKHLFRRNNGTLVVQSLHGVFKVKDTTTLQQHLVDGRDMIIIRMPKDFPPFPQKLKFREPQREERICLVTTNFQTKSMSSMVSDTSCTFPSGDGIFWKHWIQTKDGQCGSPLVSTRDGFIVGIHSASNFTNTNNYFTSVPKNFMELLTNQEAQQWVSGWRLNADSVLWGGHKVFMVKPEEPFQPVKEATQL

Variants of: B1
Assay: raw area under fraction-flipped curve 0-4 h after induction (AUC4h, not background-subtracted), DNA-recorder readout of cleavage of the substrate (dimensionless); higher = more cleavage of the substrate by the protease variant
Details: temperature: 34 °C; time window: 0-4 h after rhamnose induction
Method: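 In vivo DNA recorder in E. coli TOP10(DE3) ΔrhaA at 34 °C. Each TEVp single-site mutant (parent TEVp 0) is paired with a single-site variant of the 7-mer TEVs (canonical ENLYFQ|S). The substrate sits between flexible linkers in a Bxb1-sfGFP-TEVs-SsrA fusion, so cleavage stabilises Bxb1 and speeds flipping of a recombination array, read by NGS. The value is the raw area under the fraction-flipped curve over 0-4 h after rhamnose induction (AUC4h), with ≥20 reads per time point. It is not background-subtracted; inactive controls average about 0.047.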
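Note: Bxb1 expression induced with 0.2% (w/v) L-rhamnose at OD600 near 0.5, cultures sampled hourly, flipped fraction per protease–substrate barcode pair counted by paired-end Illumina sequencing.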

Variant | area with substrate ENAYFQS | area with substrate ENCYFQS | area with substrate ENDYFQS | area with substrate ENFYFQS | area with substrate ENGYFQS | area with substrate ENHYFQS | area with substrate ENKYFQS | area with substrate ENMYFQS | area with substrate ENPYFQS | area with substrate ENQYFQS | area with substrate ENSYFQS | area with substrate ENTYFQS | area with substrate ENVYFQS | area with substrate ENEYFQS | area with substrate ENIYFQS | area with substrate ENRYFQS | area with substrate ENNYFQS | area with substrate ENWYFQS | area with substrate ENYYFQS
MGESLFKGPRDYNPISSSICHLTNESDGHTTSLYGIGFGPFIITNKHLFRRNNGTLVVQSLHGVFKVKDTTTLQQHLVDGRDMIIIRMPKDFPPFPQKLKFREPQREERICLVTTNFQTKVMSSMVSDTSCTFPSGDGIFWKHWIQTKDGQCGSPLVSTRDGFIVGIHSASNFTNTNNYFTSVPKNFMELLTNQEAQQWVSGWRLNADSVLWGGHKVFMVKPEEPFQPVKEATQL [S121V] | 0.0709 | 0.0638 | 0.0504 | 0.0585 | 0.0533 | 0.0511 | 0.0619 | 0.0879 | 0.0589 | 0.0633 | 0.135 | 0.0628 | 0.058 |  |  |  |  |  | 
MGESLFKGPRDYNPISSSICHLTNESDGHTTSLYGIGFGPFIITNKHLFRRNNGTLVVQSLHGVFKVKDTTTLQQHLVDGRDMIIIRMPKDFPPFPQKLKFREPQREERICLVTTNFQTKSHSSMVSDTSCTFPSGDGIFWKHWIQTKDGQCGSPLVSTRDGFIVGIHSASNFTNTNNYFTSVPKNFMELLTNQEAQQWVSGWRLNADSVLWGGHKVFMVKPEEPFQPVKEATQL [M122H] | 0.0729 | 0.0726 | 0.0628 | 0.0763 | 0.0651 |  | 0.065 | 0.0732 | 0.0313 | 0.0613 | 0.0652 | 0.0622 | 0.0776 | 0.0423 | 0.105 | 0.0475 |  |  | 
MGESLFKGPRDYNPISSSICHLTNESDGHTTSLYGIGFGPFIITNKHLFRRNNGTLVVQSLHGVFKVKDTTTLQQHLVDGRDMIIIRMPKDFPPFPQKLKFREPQREERICLVTTNFQTKSLSSMVSDTSCTFPSGDGIFWKHWIQTKDGQCGSPLVSTRDGFIVGIHSASNFTNTNNYFTSVPKNFMELLTNQEAQQWVSGWRLNADSVLWGGHKVFMVKPEEPFQPVKEATQL [M122L] | 0.0599 | 0.0646 |  | 0.053 |  |  | 0.058 | 0.0606 | 0.0551 | 0.0587 | 0.0583 | 0.0616 | 0.0795 | 0.0628 |  | 0.0516 | 0.0645 | 0.0072 | 0.0501
MGESLFKGPRDYNPISSSICHLTNESDGHTTSLYGIGFGPFIITNKHLFRRNNGTLVVQSLHGVFKVKDTTTLQQHLVDGRDMIIIRMPKDFPPFPQKLKFREPQREERICLVTTNFQTKSWSSMVSDTSCTFPSGDGIFWKHWIQTKDGQCGSPLVSTRDGFIVGIHSASNFTNTNNYFTSVPKNFMELLTNQEAQQWVSGWRLNADSVLWGGHKVFMVKPEEPFQPVKEATQL [M122W] | 0.0557 | 0.0929 | 0.0565 | 0.0928 | 0.063 |  | 0.058 | 0.0854 | 0.0427 | 0.0582 | 0.0489 |  | 0.0541 | 0.0561 |  | 0.0435 | 0.0467 |  | 
